# Assay results taken from PubChem BioAssay (NCATS).
# Where “and” joins values, the source holds several entries; their conditions need not be identical. Identical values can stand only once. This list was built around the results that the source calls inconclusive (neither active nor inactive); the mix of calls is not that of the screen. Calls come from the whole dose curve; as a rule, active = well fitted cell-killing curve with a large enough effect; inconclusive = small, poorly fitted or top-dose-only effect, or effect the other way; inactive = no such curve, though single readings can be large or run the other way. Where the call is inconclusive, the potency comes from a doubtful curve fit.
# Experiment: Viability qHTS for spleen associated tyrosine kinase inhibitor (SYKi) naive MV4-11 cells (AID 1963823); note: nearly all actives have a fitted effect of over 40% in size
# Conditions: MV4-11 AML viability, CellTiter-Glo luminescence, 72 h; series mostly up to 45 µM
# Procedure, shortened: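 Viability of MV4-11 AML cells lacking prior SYK inhibitor exposure is scored by CellTiter-Glo luminescence following 72 hr compound incubation at 37 C, 5% CO2, seeded at 500 cells per well.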
# Potency is the fitted concentration of half-maximal effect; tags give direction and shape of the fitted curve.
row,Compound,Potency
1,COc1cc(N2CCN(C)CC2)ccc1Nc1ncc2c(n1)N(C)c1ccccc1C(=O)N2,"inconclusive: 11.8 µM [cytotoxic, partial curve]"
2,Cc1noc2c1-c1ccccc1C(c1ccc(Cl)cc1)=N[C@H]2CC(N)=O,"inconclusive: 25.9 µM [cytotoxic, single point] and inconclusive: 417 nM [cytotoxic, full curve, poor fit]"
3,O=C(C(c1ccccc1)c1ccccc1)N1CCN(CC(O)COc2cccc3ncccc23)CC1 (centres undefined),"inconclusive: 16.4 µM [cytotoxic, partial curve]"
4,CCOC(=O)/C=C(C)/C=C/C=C(C)/C=C/c1c(C)cc(OC)c(C)c1C,"inconclusive: 29.9 µM [cytotoxic, single point]"
5,COc1cc2nc(-c3cc(F)ccc3O)nc(N[C@@H]3CNC[C@H]3C(C)(C)O)c2cc1OC,"inconclusive: 9.2 nM [cytotoxic, full curve] and inconclusive: 4.7 nM [cytotoxic, full curve]"
6,Nc1nc2c(c(=O)[nH]1)N1CN(c3ccc(C(=O)N[C@@H](CCC(=O)O)C(=O)O)cc3)CC1CN2 (some centres undefined),"inconclusive: 1.32 µM [cytotoxic, full curve]"
7,Cc1nc(N)nc(N)c1-c1ccc(Cl)c(Cl)c1,"inconclusive: 0.531 µM [cytotoxic, full curve]"
8,CN(C)CCOC(c1ccc(Cl)cc1)c1ccccn1 (centres undefined),"inconclusive: 26.6 µM [cytotoxic, single point]"
9,CCNC(=O)Nc1ccc(Oc2ncnc(N)c2/C=N/OC)cc1Cl,"inconclusive: 14.8 µM [cytotoxic, partial curve]"
